# Test results reported in ChEMBL document CHEMBL4888484, “Replenishing the malaria drug discovery pipeline: Screening and hit evaluation of the MMV Hit Generation Library 1 (HGL1) against asexual blood stage Plasmodium falciparum ,using a nano luciferase reporter read-out” (2022).
# In all, about 150,000 compounds went through this assay and about 540 (0.36%) showed an effect of 50% or more. The list shows a part of the results.
# Test system: Plasmodium falciparum
# Experiment: Primary screen in NF54 nanoGlo assay, in single point, at 2uM, 72h; a lower Z score goes with more inhibition
# Type: functional, Erythrocyte
# Conditions: timepoint 72 hour
Compound,% Inhibition [%],Z score
COc1cccc2cc(C(=O)NC3CCN(c4ncnc5c4CCCC5)CC3)oc12,-13,1.62
NC(=O)N1CCC[C@H]1c1nc(-c2cccc(Br)c2)no1,10,-1.27
COc1ccc(CN(Cc2ccc(C(O)(c3ccc(OC)cc3)c3ccc(OC)cc3)o2)C[C@H]2CCCO2)cc1,-7,0.9
CO[C@H]1COC[C@@H]1n1cnc(-c2ccccc2)c1-c1ccc2occc2c1,0,-0.02
C1CCN(CCCC2CCN(c3nnc(C4CC4)s3)CC2)C1,-9,0.92
CC[C@H](C)NC(=O)C(=O)NCc1ccc(C)cc1,-16,2.06
C=CCn1c(C)c(CC(=O)N2CCOCC2)c(=O)n2nc(-c3ccc(C)cc3)nc12,-13,1.3
CC[C@H](C)NS(=O)(=O)c1ccc(-c2[nH]nc(C)c2C)o1,-10,1.53
Cc1csc(NC(=O)NCCN2C(=O)CNC2=O)n1,2,-0.33
CC(C)N(C(=O)CN1CC[C@H]1c1ccc(Cl)cc1)C(C)C,-4,0.72
CCOC(=O)c1ccc(NC(=O)CN2CCCn3nc(C)cc32)cc1,-8,1.3
CCCn1c(C)cnc1C1CN(C(=O)c2ccoc2)C1,-8,1.27
O=C(Nc1ccc(F)cc1F)c1cccc(CN2[C@@H]3CC[C@H]2C[C@@H](O)C3)c1,-6,1.05
O=C(CN1Cc2c(cnn2-c2ccccc2)C1=O)N1CC[C@H](CO)C1,-8,0.91
CCOc1cccc(CN2CCC(CC(=O)N3CCCC3)CC2)c1,4,-0.72
Cc1cc(C(=O)N2CCOC3CCCCC32)c2ccccc2n1 (stereo not drawn),-11,1.36
CC[C@H](Nc1ccc2c(c1)OC1(CCCCC1)O2)C(=O)Nc1cc(C)on1,-16,2.07
O=C(CC1CCCCC1)Nc1nnc([C@H]2CC(=O)N(c3ccc(OC(F)(F)F)cc3)C2)o1,-5,0.75
Cc1cc(C(=O)Nc2cccc(N3CCCC3=O)c2)on1,-5,0.97
Cn1nc(-c2ccncc2)cc1CNC(=O)c1ccc(Cl)s1,-13,2.11
CN[C@@H](C)c1nc(-c2cccc3c2ccn3C)n[nH]1,1,-0.11
Cc1nnc(NC(=O)N2CCN(c3ccc(-c4ccccc4)cc3)CC2)[nH]1,-7,0.94
CC(C(=O)NCC1CCCO1)N(C)C(C)c1ccccc1 (stereo not drawn),-3,0.35
CC(C)(O)Cn1nc(CC(N)=O)nc1C1CC=CC1,-8,1.12
O=S(=O)(Nc1ccc(F)cc1)c1cccnc1Nc1ccccc1,-3,0.34
CO[C@@H]1C[C@@H](c2ncn[nH]2)N(CC(=O)N2CCCc3ccccc32)C1,7,-0.95
COc1cccc(CN=C(N)N(C)C2CC2)c1OC1CCCC1,-3,0.5

Compound,% Inhibition [%],Z score
CN(Cc1cccnc1)c1ncccc1F,3,-0.43
C[C@]1(O)CCN(c2cc(C(F)(F)F)ccn2)C[C@H]1O,-2,0.3
CCCCc1nc(C)cc(NCCn2cnc3cn(C)nc3c2=O)n1,-17,1.54
COc1cccc(-c2cn[nH]c2C2CCN(Cc3ncc[nH]3)CC2)c1,-7,0.73
COCC(=O)Nc1ccnn1[C@@H](C)CC(C)C,-2,0.34
O=C(NC1CCN(Cc2ccccc2)CC1)c1ccn2c(-c3ccccc3Cl)nnc2c1,-3,0.56
COCCc1noc(COC2CCN(S(C)(=O)=O)CC2)n1,-11,1.42
NC(=O)c1ccc(NC(=O)N[C@H]2CCOc3c(F)cccc32)cn1,1,-0.24
CCc1nccc(CN2CCN(c3ccc(F)c(Cl)c3)CC2)n1,-7,1.17
CNC(=O)c1ncoc1-c1cccs1,-1,0.18
Cc1ccc(C(=O)N2CC(OC(=O)Nc3cccc(F)c3)C2)n1C,4,-0.49
Cc1nsc(C(=O)N2CCN(CC(F)(F)CO)CC2)n1,-9,1.19
O=C(OC1CCCC1)[C@H]1CC(=O)N(c2ccc3c(c2)CCC3)C1,-2,0.18
Cc1nc(C)c(CC(=O)N[C@H]2C[C@H](c3cc(=O)[nH]cn3)C2)s1,2,-0.42
Cc1ccc([C@H]2c3cc(OCc4ccc(C(=O)N(C)Cc5ccco5)o4)ccc3CCN2C(=O)CC(C)C)cc1,-11,1.67
CCNc1ncc(C(=O)N2CCN(c3ccccc3OC)CC2)cn1,-13,2.14
CN(CC1CC1)C(=O)CCNS(=O)(=O)c1ccc(Cl)cc1,-1,0.14
Cc1[nH]c2ccc(Cl)c3c2c1CCN1C(=O)OC(C)(C)[C@@]31C,-17,1.81
CC[C@H](NC(=O)N1CCC2(CC1)CN(C)CCCN2C)c1ccc(C)cc1,-1,0.11
CN1OCC(S(=O)(=O)NC(C)(C)C)C1c1cccc(OCc2ccccc2)c1 (stereo not drawn),-10,1.42
COc1nn(C)cc1NC(=O)N1Cc2ccccc2C(C)(C)C1,16,-1.61
CC(O)CN1CCN(CC(O)COCc2cccs2)CC1C (stereo not drawn),6,-0.47
CC(=O)NCc1nc([C@H]2CCOC2)nn1-c1ccc2nc(C)sc2c1,-9,1.73
Cc1cc(-c2cn3cc(C(=O)NCCO)nc3c(=O)n2CC2CC2)c(C)o1,-11,1.49
COc1ccc2c(c1)CCc1c(C(=O)NCCCN(C)C3CCCCC3)n[nH]c1-2,-22,1.92
COc1cc2nc(N3CC[C@@H](O)[C@@H](O)C3)cc(C)c2cc1OC,10,-1.23
OCCn1ccc([C@H]2CCCN(Cc3cc4ccccc4o3)C2)n1,-7,0.72
